Test results: PubChem BioAssay AID1347417 (National Center for Advancing Translational Sciences (NCATS), 2020)
Among all 120,000 compounds or so, about 5,300 (4.4%) were called active. The shares of active, inactive and inconclusive entries below differ from those in the screen. Calls come from the whole dose curve; as a rule, active = well fitted inhibition curve with a large enough effect; inconclusive = small, poorly fitted or top-dose-only effect; inactive = no such curve, though single readings can be large or run the other way. Where the call is inconclusive, the potency comes from a doubtful curve fit.
Potency is the fitted concentration of half-maximal effect; tags give direction and shape of the fitted curve.

Experiment: qHTS Primary assay for Inhibitors of Plasmodium falciparum Dd2 growth in vitro; note: nearly all actives have a fitted effect of over 65% in size;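 for activity, negative = inhibition: plate controls were DMSO vehicle for no effect and reference drug for full effect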
Details: P. falciparum Dd2 growth, SYBR Green, 72 h; activity, negative = inhibition: at 28.9 µM (top of the series) unless noted; series mostly up to 28.9 µM
How it was run: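 Readout: SYBR Green fluorescence, 485 nm excitation, 535 nm emission, after ~16 h lysis at 37C. Before that, Dd2-infected red cells (2.5% hematocrit) grew 72 h with compound, 29 uM top final concentration.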
In the case of `Cc1c(C(=O)N2CC[C@@](O)(C3CCOCC3)[C@H](C)C2)n(C)c2c(C)cccc12`, the “activity, negative = inhibition” value is reported as inactive: -4.9%. For `CCc1ccc(C(=O)N2CCC(Cc3nc(-c4cccc(OC)c4)no3)CC2)cc1`, the Potency was inconclusive: 20 µM [inhibitor, partial curve, poor fit]. For `CNc1nc(NCCC2CN(c3cnn(C)c(=O)c3)CCO2)ncc1F` (stereo not drawn), the “activity, negative = inhibition” value was inactive: 0.947%. With `Cc1ccc(CNC(=O)CCCCCn2c(=O)c3sccc3n(CC(=O)Nc3ccc(C)c(F)c3)c2=O)cc1` the Potency was inconclusive: 17.8 µM [inhibitor, single point]. For `CCc1cnc2c(c1SCc1ccccc1C)c(=O)n(C)c(=O)n2C`, the Potency was inconclusive: 8.91 µM [inhibitor, single point]. In the case of `COc1ccc(C(=O)NC2CCN(c3cc(-c4ccc(F)cc4)[nH]n3)C2)c(OC)c1` (stereo not drawn), the Potency is reported as inconclusive: 2.24 µM [inhibitor, single point]. For `CCNC(=O)c1cc2n(n1)CC(c1ccc(Br)cc1)OC2` (stereo not drawn), the “outcome” value was “inactive”. For `O=C(CCc1nc2ccccc2[nH]1)N1[C@H]2CC[C@@H]1c1cnc(-c3ccc(F)cc3)nc1C2`, the Potency was active: 11.2 µM. For `COc1ccc(C(=O)N2CCC3(CC2)CC(Cc2nc(-c4cnccn4)no2)CCO3)c(OC)n1` (stereo not drawn), the Potency was inconclusive: 10 µM [inhibitor, single point]. In the case of `COc1ccccc1CNC(=O)CCC[C@@H]1[C@H]2CCCN3CCC[C@@H](CN1C(=O)c1cccnc1)[C@@H]23`, the Potency is reported as inconclusive: 11.2 µM [inhibitor, single point]. For `Cc1cccc(C(=O)N2CCC3(CC2)OCC(C(=O)NCC2CCCO2)N3C(=O)c2ccccc2)c1` (stereo not drawn), the Potency was inconclusive: 7.94 µM [inhibitor, partial curve]. For `COc1ccc2c(c1)c(CC(=O)Nc1ccc(C(C)=O)cc1)c(C)n2C(=O)c1ccc(Cl)cc1`, the Potency was inconclusive: 17.8 µM [inhibitor, single point]. With `Cc1ccc(NC(=O)c2oc3ccccc3c2NC(=O)c2ccc(F)c(F)c2)cc1` the Potency was inconclusive: 17.8 µM [inhibitor, single point]. With `NC1CCCCN(Cc2ccc(-c3ccn[nH]3)s2)C1` (stereo not drawn) the “activity, negative = inhibition” value was inactive: -12.7%. With `CN1CCC(NC[C@H]2O[C@@H](CO)[C@@H](O)[C@@H]2N(C)Cc2ccccc2)CC1` the “activity, negative = inhibition” value was inactive: 6.7%. With `C[C@@H](NC(=O)C1=C[C@@H](NC(=O)NC2CCCCC2)[C@@H](O)[C@H](O)C1)C(N)=O` the “activity, negative = inhibition” value was inactive: 8.69% [at 44.1 µM]. For `Cc1ccccc1Cn1cc(-c2ccncc2)cc1C(=O)NCc1ccncc1`, the Potency was inconclusive: 5.01 µM [inhibitor, partial curve, poor fit]. In the case of `CC1CCN(C(=O)CSc2nnc(-c3ccccc3)o2)CC1`, the Potency is reported as inconclusive: 4.47 µM [inhibitor, partial curve, poor fit]. In the case of `CN(C(=O)CSc1nc(C2CCCC2)nc2c1c(=O)n(C)c(=O)n2C)c1ccccc1`, the Potency is reported as inconclusive: 10 µM [inhibitor, partial curve, poor fit]. With `CCOC(=O)C1=C(C)N=C2SC=C(CC(=O)Nc3ccc(C)c(C)c3)N2C1c1cccc(OC)c1` (stereo not drawn) the Potency was active: 8.91 µM. In the case of `CSc1ccc(-c2nc(CN(C)Cc3cc(C)no3)c(C)o2)cc1`, the “outcome” value is reported as “inactive”. For `O=C(CCC[C@@H]1[C@H]2CCCN3CCC[C@@H](CN1C(=O)c1cccnc1)[C@@H]23)NCCCN1CCCC1`, the “outcome” value was “inactive”. With `Clc1ccc(C2Cn3nnc(-c4noc(Cc5ccccc5Cl)n4)c3CO2)cc1` (stereo not drawn) the Potency was inconclusive: 2.51 µM [inhibitor, single point]. For `Cc1ccccc1CCC(=O)N1CCC2(CC1)C(C(=O)O)CC(=O)N2C` (stereo not drawn), the “activity, negative = inhibition” value was inactive: -1.68%. For `COc1cccc(-c2cc(C(=O)NCc3cccnc3)c3c(c2)N(C)CCO3)c1OC`, the Potency was inconclusive: 1.41 µM [inhibitor, partial curve, poor fit]. In the case of `COc1ccc(C(=O)N2C[C@@H](CO)[C@H](c3nc(C)no3)C2)cc1F`, the “activity, negative = inhibition” value is reported as inactive: -4.25%. With `Cc1ccc(NC(=O)c2ccc3c(c2)N(S(C)(=O)=O)CC3)c(C)c1` the “outcome” value was “inactive”. In the case of `CC(NC(=O)c1cc(-c2ccncc2)cn1C)c1ccc(F)cc1` (stereo not drawn), the Potency is reported as inconclusive: 7.94 µM [inhibitor, single point]. In the case of `CS(=O)(=O)N(C1CC1)C1CCOC2(CCN(C(=O)CCC3CCCC3)CC2)C1` (stereo not drawn), the “activity, negative = inhibition” value is reported as inactive: -6.46%. For `CC(C)NC[C@H]1O[C@@H]2C[C@@H](CC(=O)NCc3cnn(C)c3)O[C@@H]2[C@@H]1O`, the “activity, negative = inhibition” value was inactive: 15.8% [at 44.1 µM]. In the case of `Cc1ccnc(NC(=O)C2CC(=O)N(c3n[nH]c4cc(Br)ccc34)C2)c1` (stereo not drawn), the Potency is reported as inconclusive: 10 µM [inhibitor, single point]. In the case of `Cc1cccc(-n2c(=O)c3c(cc(C)n3C)n(CC(=O)Nc3ccccc3F)c2=O)c1`, the “outcome” value is reported as “inactive”. In the case of `CC1CCN(C(=O)c2ccc3c(c2)N(Cc2ccccc2)C(=O)c2ccccc2S3(=O)=O)CC1`, the Potency is reported as inconclusive: 3.16 µM [inhibitor, partial curve]. With `Cc1ccc(-c2nc(C(=O)NCc3ccc(F)cc3)no2)cc1` the “activity, negative = inhibition” value was inactive: 31.8%. In the case of `CCC1(O)CCC12CCN(C(=O)CCc1nc3ccccc3s1)CC2` (stereo not drawn), the Potency is reported as inconclusive: 7.08 µM [inhibitor, partial curve, poor fit]. With `NCCc1cccc(CN2CCC(Oc3cccc(F)c3)CC2)c1` the Potency was active: 10 µM. With `COc1ccc(-c2ccc3ncn(C4CC4)c(=O)c3n2)cc1OC` the Potency was inconclusive: 0.562 µM [inhibitor, full curve, poor fit]. In the case of `Cc1noc(C)c1S(=O)(=O)N1CCC(Cc2nc(-c3cccnc3)n[nH]2)C1` (stereo not drawn), the “activity, negative = inhibition” value is reported as inactive: -15.6%. In the case of `O=C(Nc1ccc2c(N3CCCCC3)ncnc2c1)c1ccc(F)cc1F`, the Potency is reported as inconclusive: 10 µM [inhibitor, single point]. In the case of `Cn1c(CNC(=O)CC[C@H]2NC(=O)c3ccccc3NC2=O)nc2ccccc21`, the “activity, negative = inhibition” value is reported as inactive: -3.28%. For `Cc1cc2nc(CO[C@H]3CN(Cc4ccc5c(c4)OCO5)C[C@H]3F)[nH]c2cc1C`, the Potency was inconclusive: 2.51 µM [inhibitor, partial curve, poor fit]. In the case of `Cc1ccsc1C(=O)N1CCc2nnc([C@@H]3C[C@@H](O)CN3C)n2CC1`, the “activity, negative = inhibition” value is reported as inactive: 0.475%. For `Cc1ccccc1CN1CCC2(Cc3ccccc3CNC2=O)C1` (stereo not drawn), the Potency was inconclusive: 4.47 µM [inhibitor, partial curve, poor fit].
